# Among all 310,000 compounds or so, about 2,200 (0.71%) showed an effect of 50% or more. The effect is printed as a negative number. Some of the results follow.
# Target: human ether-à-go-go-related gene (hERG) potassium channel (human, UniProt Q12809)
# Experiment: primary screen, population patch clamp on CHO cells stably expressing hERG
# human ether-à-go-go-related gene (hERG) potassium channel, sequence (Q12809 whole entry, looked up): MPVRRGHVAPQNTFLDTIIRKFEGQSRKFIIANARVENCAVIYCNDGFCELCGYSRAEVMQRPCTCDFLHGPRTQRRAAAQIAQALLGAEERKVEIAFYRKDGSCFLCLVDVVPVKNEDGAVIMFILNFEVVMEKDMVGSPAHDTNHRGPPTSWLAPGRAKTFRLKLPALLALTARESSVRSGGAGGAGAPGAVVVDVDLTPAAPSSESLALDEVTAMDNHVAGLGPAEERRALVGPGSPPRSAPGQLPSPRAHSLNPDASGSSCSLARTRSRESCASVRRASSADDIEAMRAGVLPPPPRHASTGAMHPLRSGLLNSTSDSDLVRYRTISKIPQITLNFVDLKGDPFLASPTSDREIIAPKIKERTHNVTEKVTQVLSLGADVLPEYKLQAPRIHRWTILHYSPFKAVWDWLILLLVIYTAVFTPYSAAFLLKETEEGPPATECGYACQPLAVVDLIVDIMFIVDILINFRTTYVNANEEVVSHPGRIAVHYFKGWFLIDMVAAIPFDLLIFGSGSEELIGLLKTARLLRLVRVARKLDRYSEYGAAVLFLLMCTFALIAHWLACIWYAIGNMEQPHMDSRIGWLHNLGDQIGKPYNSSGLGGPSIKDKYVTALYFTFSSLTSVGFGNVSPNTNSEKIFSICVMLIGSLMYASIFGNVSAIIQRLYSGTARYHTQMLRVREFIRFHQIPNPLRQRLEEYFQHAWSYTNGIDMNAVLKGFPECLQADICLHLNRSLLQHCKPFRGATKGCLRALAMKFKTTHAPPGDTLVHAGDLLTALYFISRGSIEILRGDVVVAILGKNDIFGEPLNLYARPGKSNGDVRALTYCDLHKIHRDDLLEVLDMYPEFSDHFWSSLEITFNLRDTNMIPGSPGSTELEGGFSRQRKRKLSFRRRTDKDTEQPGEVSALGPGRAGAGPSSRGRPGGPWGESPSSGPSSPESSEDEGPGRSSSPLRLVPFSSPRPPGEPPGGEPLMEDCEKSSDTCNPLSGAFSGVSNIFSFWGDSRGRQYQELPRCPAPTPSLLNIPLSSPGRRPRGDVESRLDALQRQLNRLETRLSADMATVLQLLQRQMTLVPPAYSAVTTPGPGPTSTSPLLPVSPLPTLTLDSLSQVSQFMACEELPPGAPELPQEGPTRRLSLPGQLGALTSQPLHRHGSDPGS
row,SMILES,"hERG current change (%, negative = inhibition) at 1uM"
1,CCC(C)[C@H](N)c1nnc(SCc2cccc(F)c2)o1.Cl (stereo partly shown),17.7%
2,CCOc1ccccc1C1C(C(=O)OC)=C(N)OC2=C1C(=O)CCC2 (stereo not shown),6.69%
3,CCN=c1scc(-c2ccccc2)n1/N=C/c1ccccn1,2.12%
4,CC(C)(CN1CCCC1)NS(=O)(=O)c1ccccc1.Cl,12.7%
5,O=C(COC(=O)c1cc(S(=O)(=O)N2CCOCC2)c(Cl)cc1Cl)Nc1ncc(C(F)(F)F)cc1Cl,9.27%
6,CCOc1cc(/C=N/n2c(C)nnc2C)ccc1O,12.6%
7,CCc1nc(Nc2ccccc2O)c2oc3ccccc3c2n1.Cl,8.96%
8,CCN(CC)Cc1c(C(=O)N/N=C(\C)c2ccncc2)nnn1-c1nonc1N,-39.7%
9,CC(C)CNC(=O)C1CCN(c2ccc(S(=O)(=O)N3CCOCC3)cc2[N+](=O)[O-])CC1,-9.02%
10,CC1(C)Cc2ccccc2C2=C(C(=O)N3CCCCCC3)C(=O)C(=O)N21,11.5%
11,CCOc1cc(C(=O)CCC(=O)OCC(=O)N2c3ccccc3NC(=O)C2(C)C)ccc1O,-0.0872%
12,Cc1cccc(NC(=O)CN2C(=O)S/C(=C\c3cc(C)n(C)c3C)C2=O)c1,0.701%
13,CCC1CCCCN1S(=O)(=O)c1ccc(NC(=O)c2cccs2)cc1 (stereo not shown),11.5%
14,COc1ccccc1N1CCN(CC(=O)Nc2ccc(C)c(F)c2)CC1,3.75%
15,Cc1cc(OCC(=O)N[C@@H](Cc2ccccc2)c2nc3ccccc3[nH]2)ccc1Cl,7.57%
16,CC1CCN(S(=O)(=O)c2ccc(Cl)cc2Br)CC1,4.97%
17,CC1CC(C)(C)NC(=S)N1CC(=O)NCc1ccc(F)cc1 (stereo not shown),6.39%
18,O=C(N/N=C/c1cc2c(cc1Br)OCO2)c1cccnc1,15.1%
19,COc1cc(NC(=O)CN2C(=O)C(c3ccccc3)=NC23CCCCCC3)cc(OC)c1,25.4%
20,O=C(Nc1ccccc1)c1ccc(C(=O)Nc2ccccc2)nc1,13.7%
21,Cc1ccc(C(=O)NCC(=O)N2CCN(S(=O)(=O)c3cccs3)CC2)s1,7.92%
22,Cc1ccc(S(=O)(=O)N(Cc2ccc(F)cc2)C(=O)N2CCN(C)CC2)cc1,13.8%

row,SMILES,"hERG current change (%, negative = inhibition) at 1uM"
1,Nc1nnc(CSCc2ccc(Cl)cc2Cl)s1,13.4%
2,COc1cccc(CN2CCN(Cc3ccccc3C(F)(F)F)CC2)c1,13.8%
3,CCOc1ccc(CNC23CN4CN(CN(C4)C2)C3)cc1,1.08%
4,O=C(CN1CCN(Cc2ccc3c(c2)OCO3)CC1)Nc1ccc(F)cc1,-82.6%
5,C#CCOCCOCCOCCNc1nc(N2CCN(C(=O)[C@H](C(C)C)n3cc(CCO)nn3)CC2)nc(N2CCN(C(=O)[C@H](C(C)C)n3cc(CCO)nn3)CC2)n1,13.4%
6,CC(C)n1c(O)c(/C=C2\C=NN=C2c2ccccc2)sc1=S,12.1%
7,Cc1ccccc1-c1nc(CS(=O)(=O)CC(=O)NC2CCCC2)c(C)o1,16.9%
8,O=C(CCC(=O)Nc1ccc(Br)cc1)N/N=C/c1ccccc1F,10.8%
9,COc1ccc(O)c(C2=Nc3ccccc3N=C(c3ccccc3)C2)c1,4.29%
10,COc1ccc(OCCNC(=O)c2ccccc2OCC(=O)Nc2ccc(NC(C)=O)cc2)cc1,-4.32%
11,CC(C)Cn1c(SCC(=O)c2c(N)n(C)c(=O)n(C)c2=O)nc2ccccc21,9.61%
12,CCOc1ccc(-c2[nH]ncc2Oc2ccccc2OC)c(O)c1,8.33%
13,CCN(CCCNC(=O)c1cc2c(-c3cccc(OC)c3)nn(C)c2s1)Cc1ccccc1,3.66%
14,Cc1ccc(/C=N/NC(=O)c2ccncc2)cc1,12.5%
15,COc1cccc(CNC(=O)c2ccc(C)c(S(=O)(=O)N3CCOCC3)c2)c1,2.8%
16,COc1cccc(NC(=O)CSc2nnc(-c3ccoc3C)n2CC2CCCO2)c1 (stereo not shown),11.9%
17,C#CCOc1nc(Nc2cccc([N+](=O)[O-])c2)nc(OCC#C)n1,-4.7%
18,COc1cccc(CN2CCN(C(=O)c3cccc4ccccc34)CC2)c1OC.O=C(O)C(=O)O,7.2%
19,Clc1ccccc1-c1nc(-c2ccncc2)no1,12%
20,O=C(CN1C2CCCC1CC(NC(=O)c1ccccc1)C2)Nc1ccccc1C(F)(F)F (stereo not shown),12.3%
21,Cc1ccc(C23CC4CC(CC(NC(=O)NC(C)(C)CO)(C4)C2)C3)cc1,4.41%
22,COCCCNC(=O)c1cc2c(-c3ccc(Cl)cc3)nn(C)c2s1,13.3%

row,SMILES,"hERG current change (%, negative = inhibition) at 1uM"
1,COc1ccc2c(c1)O[C@H](c1ccc3c(c1)OCO3)[C@@H](OC(=O)N[C@H](C)C1CCCCC1)C2=O,-0.286%
2,Cc1cccc(NC(=O)CN2C(=S)NC(C)(C)CC2C)c1C (stereo not shown),10.9%
3,COc1ccc(CC(=O)NC(C)c2nnc(SCC(=O)Nc3ccccc3F)n2C)cc1 (stereo not shown),8.61%
4,CC(=O)c1ccc(NC(=O)COc2ccccc2C(=O)Nc2ccccc2)cc1,10.3%
5,O=S(=O)(c1ccc(Cl)cc1)c1cc(O)ccc1O,11.8%
6,COc1ccc(C2CC(=O)c3cnc(NC(=O)c4ccccc4)nc3C2)c(OC)c1 (stereo not shown),-2.79%
7,CC1=NN(c2ccccc2)C(=O)/C1=C\c1cc(C)n(C)c1C,12.2%
8,CCOc1ccccc1NC(=O)N1CCC(n2nnc3cc(C)ccc32)CC1,-0.424%
9,CCOc1ccc2ccccc2c1C1NC(=O)NC(C)=C1C(=O)OCCOC (stereo not shown),13.7%
10,CCOc1ccc(NC(=O)CC(Cc2cc(C)cc(C)c2)C(=O)O)cc1 (stereo not shown),3.96%
11,O=C(Oc1ccccc1N1C(=O)C2CCCCC2C1=O)c1ccccc1F (stereo not shown),2.76%
12,CN(c1ccccc1)S(=O)(=O)c1ccc(-c2ccccc2)cc1,12.8%
13,COc1ccc([N+](=O)[O-])cc1C1NN=C(c2cccc3ccccc23)S1 (stereo not shown),-0.05%
14,CCOC(=O)C(NC(=O)Nc1ncccn1)(Oc1ccccc1)C(F)(F)F (stereo not shown),-5.94%
15,Cc1nn(S(=O)(=O)c2ccc(C(C)(C)C)cc2)c(C)c1S(=O)(=O)N1CCOCC1,12.5%
16,CC(C(=O)Nc1ccccc1)c1ccc(-c2ccccc2)c(F)c1 (stereo not shown),4.24%
17,O=C(c1ccccc1)N1CCN(C(=O)C23CC4CC(CC(C4)C2)C3)CC1,1.28%
18,O=C(COc1nc2ccccc2nc1N1CCOCC1)Nc1ccc(S(=O)(=O)N2CCCC2)cc1,5.77%
19,CC(=O)OCC1OC(Nc2cccc(C)c2)C(OC(C)=O)C(OC(C)=O)C1OC(C)=O (stereo not shown),-0.217%
20,CCOC(=O)c1c(C)[nH]c(C(=O)COC(=O)c2ccc(F)c(S(=O)(=O)N3CCOCC3)c2)c1C,14.4%
21,O=C(COC(=O)/C=C/c1ccc(Cl)cc1)NCCN1C(=O)CSC1=O,5.65%
22,CN(C)CCNC(=O)c1ccc(Cl)s1,-8.78%

row,SMILES,"hERG current change (%, negative = inhibition) at 1uM"
1,COC(=O)c1ccc(CSC2=NCCS2)cc1,6.73%
2,CCOc1ccc(CCNC(=O)C(O)c2ccccc2)cc1 (stereo not shown),6.82%
3,O=C(COc1ccc(Cl)cc1Cl)NCCCCc1ccccc1,20.3%
4,COc1ccccc1C(=O)NCCC(=O)Nc1ccc(S(=O)(=O)N2CC(C)CC(C)C2)cc1 (stereo not shown),13.6%
5,Fc1ccc(-[n+]2nc(Nc3ccccc3)sc2-c2c(Cl)cccc2Cl)cc1.[Cl-],-2.28%
6,COc1ccc(NS(=O)(=O)c2ccc(OCC(=O)N3CCOCC3)cc2)cc1,10.5%
7,CCc1ccccc1-n1c(SCC(=O)NC)nnc1-c1cccnc1,20.3%
8,Cn1c(=O)c2c(nc(SCC(=O)NCc3ccco3)n2C)n(C)c1=O,3.4%
9,CCOc1nc2cnccc2n(CC(=O)Nc2cccc(C)c2C)c1=O,4.31%
10,CC1CCCN(C(=O)CN2CCN(C(=O)c3ccco3)CC2)C1 (stereo not shown),9.98%
11,COc1ccc2c(c1OC)CN(C)CCc1cc3c(cc1C(O)C2)OCO3 (stereo not shown),-0.22%
12,O=[N+]([O-])c1cccc(S(=O)(=O)N2CCN(S(=O)(=O)N3CCOCC3)CC2)c1,17.3%
13,Cc1ccc(-n2c(SCC(N)=O)nnc2-c2ccco2)cc1,10.4%
14,Cc1ccc2cccc(S(=O)(=O)N3CCN(c4cccc(Cl)c4)CC3)c2n1,6.54%
15,COc1cccc(NC(=O)CCNC(=O)c2ccccc2Cl)c1,11.2%
16,Cc1c(-c2ccn[nH]2)cc(NC(=O)c2ccc(Cl)cc2)c(=O)n1N,21.2%
17,COc1ccc(NC(=O)CSc2nc3ccccc3n2-c2ccccc2)c([N+](=O)[O-])c1,6.61%
18,Cc1cccc(N2C(=O)CN(Cc3cccs3)C2=S)c1,7.77%
19,CC(C)CNC(=O)c1cccc(NC(=O)Cc2ccc(Cl)cc2)c1,12.8%
